Experimental findings from PubChem BioAssay AID1508624 (National Center for Advancing Translational Sciences (NCATS), 2021) are described below.

Each structure is given as a SMILES string. Out of some 48,000 compounds screened, about 120 (0.25%) were called active. Not shown: some 4% with an inconclusive outcome. The call rests on the fitted dose curve; in most records, active means well fitted activation curve with a large enough effect; inconclusive means small, poorly fitted or top-dose-only effect, or another doubt; inactive means no such curve, though single readings can be large or run the other way. Some of the results follow.

The nature of the assay: Primary qHTS for Identification of Small Molecule Activators of Huntingtin-Antisense Promoter Activity. Further: nearly all actives have a fitted effect of over 55% in size. To be noted: HEK293 HTT-AS promoter firefly luciferase reporter, 24 h; series mostly up to 57.5 µM; activity change, positive = activation: at the top concentration. The essentials:
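HEK293 luciferase promoter-reporter cells (2,500/well) plated 24 h, then compounds added at up to 57.5 uM final for 24 h at 37 °C. Firefly luminescence by Dual-Glo, normalized to vehicle (0%) and zero RLU (-100%).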
As to `Cc1nn(S(=O)(=O)c2ccc(F)cc2)c(C)c1S(=O)(=O)N1CCC(C)CC1`, the “activity change, positive = activation” value is inactive: -9.54%.
In the case of `COc1cccc2cc(C(=O)NCCc3c(C)[nH]c4ccc(Br)cc34)c(=O)oc12` it was inactive: -19.7%.
`CCOC(=O)c1cc2c(=O)n3ccccc3nc2n(CC(C)C)c1=NC(=O)c1cc2ccccc2o1`: the “activity change, positive = activation” value is inactive: -2.62%.
In the case of `Cc1ccc(S(=O)(=O)c2cn(Cc3ccc(F)cc3)c3cc(F)c(F)cc3c2=O)cc1` it was inactive: 0%; in that of `CCOCCn1ccc2c(OCC(=O)Nc3ccc(OC(F)(F)F)cc3)cccc2c1=O`, inactive: -17.4%; in that of `O=C(CN1C(=O)CC(c2ccccc2)Sc2ccccc21)Nc1cccc(Cl)c1` (stereo not drawn), inactive: -38.5%.
`CC(=O)c1cccc(NC(=O)CCS(=O)(=O)c2ccc(Br)s2)c1`: the “activity change, positive = activation” value is inactive: -1.11%.
In the case of `CC(C)(C)NC(=O)c1cnn2c(C(F)F)cc(-c3ccccc3)nc12` it was inactive: -8.43%.
With `Cc1ccc(CCNC(=O)C2CCN(c3nnc(-n4cccc4CNc4ccc(C)cc4)s3)CC2)cc1`, the “activity change, positive = activation” value is inactive: -39.1%.
In the case of `CCN(C(=O)Cn1c(=O)oc2cc(Cl)ccc21)c1cccc(C(F)(F)F)c1` it was inactive: -8.34%; in that of `COc1ccc(/C=C/C(=O)Nc2nc3n(n2)C(c2ccccc2)C=C(c2ccccc2)N3)cc1` (stereo not drawn), inactive: -24.1%; in that of `Cc1ccc(-c2cnc(NCc3ccc(C(F)(F)F)cc3)n2C)cc1`, inactive: -10.6%.
In the case of `CC(C)c1cnc2c(c1SCC(=O)NCc1ccccc1)c(=O)n(C)c(=O)n2C` it was inactive: -13.2%; in that of `CN(Cc1ccccc1)C(=O)CSc1nc2ccccc2n1Cc1ccccc1F`, inactive: -10.1%.
For `Cc1ccccc1NC(=O)CSc1nc(=O)n(CCN2CCOCC2)c2c1CCC2`, the “activity change, positive = activation” value was inactive: -1.64%.
Turning to `Cc1sc2c(c1C)c(=O)n(-c1cccc(C(F)(F)F)c1)c(=O)n2Cc1ccc(F)cc1`, the “activity change, positive = activation” value is inactive: -6.63%.
In the case of `COC(=O)c1ccc(NC(=O)CCc2c(C)nc3c(c2C)c(=O)n(C)c(=O)n3C)cc1` it was inactive: -12.5%; in that of `COc1ccccc1Cc1nc2ccccc2nc1SCC(=O)Nc1cccc(Cl)c1C`, inactive: -9.89%; in that of `COc1cc(NC(=O)CSC2=Nc3ccccc3N=C(c3ccc(F)cc3)C2)cc(OC)c1`, inactive: -22.8%.
For `COc1ccc(CNC(=O)c2cnc3cc(C)ccn3c2=O)cc1`, the “activity change, positive = activation” value is inactive: 30.9%.
In the case of `COc1ccccc1N1CCN(C(=O)CCNS(=O)(=O)c2ccc3c(c2)CCN3C(=O)C2CC2)CC1` it was inactive: -16.2%; in that of `COc1ccc(Cl)cc1NC(=O)CSC1=Nc2ccccc2C2=NC(CC(=O)NCc3ccc4c(c3)OCO4)C(=O)N12` (stereo not drawn), inactive: -23.5%; in that of `Cc1ccc(NC(=O)c2cnc(SCC(=O)Nc3cc(C)on3)n(C)c2=O)cc1`, inactive: 4.8%.
In the case of `Cc1ccc(CNC(=O)Cn2cc(S(=O)(=O)Cc3ccccc3F)c3ccccc32)cc1`, the “activity change, positive = activation” value is inactive: -11.7%.
As to `C=CCc1ccccc1OCC(O)CN1CCN(c2ccccc2)CC1` (stereo not drawn), the “activity change, positive = activation” value is inactive: -8.42%.
In the case of `COc1ccccc1C(=O)Nc1ccc2c(c1)nc(CN1CCCCC1)n2C` it was inactive: -26.3%; in that of `Cc1cc(C)n2nc(SCC(=O)Nc3cccc(C(F)(F)F)c3)nc2n1`, inactive: -33.3%; in that of `CCn1c(=O)n(CC)c2cc(N3CCCCC3)c(NC(=O)Nc3ccccc3C(F)(F)F)cc21`, inactive: -34.4%.
Regarding `CCC(Oc1ccc(F)cc1)C(=O)Nc1nc(-c2ccc(F)cc2)ns1` (stereo not drawn), the “activity change, positive = activation” value is inactive: -45.2%.
In the case of `CCOC(=O)c1ccc(NC(=O)CC2C(=O)N(c3cccc(OC)c3)C(=O)N2Cc2ccc(OC)cc2)cc1` (stereo not drawn), the “activity change, positive = activation” value is inactive: -8.69%.
In the case of `CCc1ccc(-c2csc(-c3cc4cc(Br)ccc4oc3=O)n2)cc1` it was inactive: -27.1%; in that of `COc1ccc(C(=O)Nc2nnc(S(=O)(=O)N3CCOCC3)s2)cc1`, inactive: -15.4%; in that of `Cc1nn(C(C)C(=O)NCc2cccc(F)c2)c(=O)c2c1sc1ccccc12` (stereo not drawn), inactive: -11.4%.
For `CCN(CC)C(=O)Cn1cc(SCC(=O)Nc2ccc(C)cc2)c2ccccc21`, the “activity change, positive = activation” value is inactive: -0.861%.
In the case of `Cc1ccc(C)c(N2CCN(C(=O)Cn3nc(Cc4cccnc4)c4ccccc4c3=O)CC2)c1` it was inactive: -37.5%; in that of `COc1ccc(C)cc1NC(=O)C(NS(=O)(=O)c1cccc2nsnc12)c1ccccc1` (stereo not drawn), inactive: -9.79%.
Regarding `CCOC(=O)N1CCc2c(sc3c2c(=O)n(-c2ccc(Cl)cc2)c(=O)n3CC(=O)Nc2ccccc2)C1`, the “activity change, positive = activation” value is inactive: -4.96%.
In the case of `CCOCN(C(=O)CSc1nc2ccccc2[nH]1)c1c(C)cccc1CC` it was inactive: -38.1%; in that of `O=C(c1ccccc1)c1ccc2nc(Nc3ccccc3Cl)c3nncn3c2c1`, inactive: -21%; in that of `CCCCN(CC)C(=O)Cn1nc(C)c2c(C)n(-c3ccccc3)nc2c1=O`, inactive: 16.1%.
With `CCOC(=O)c1c(C)oc2nc(C)nc(NCc3cccc(OC)c3)c12`, the “activity change, positive = activation” value was inactive: -14.8%.
For the compound `CCOC(=O)c1cc(OC(=O)c2ccc(OC)c(OC)c2)n(-c2ccccc2)n1`, the “activity change, positive = activation” value is inactive: -3.38%.
In the case of `C[C@H](CS)C(=O)N1CCC[C@H]1C(=O)O` it was inactive: -10.7%; in that of `COc1ccccc1CNC(=O)CCCn1c(=O)c2ccccc2n(Cc2ccccc2F)c1=O`, inactive: -3.07%; in that of `Cc1ccc(N2CC(C(=O)Nc3ccc(Cl)cc3Cl)CC2=O)cc1` (stereo not drawn), inactive: -5.73%.
In the case of `Cc1cccc(Cn2c(SCc3ccc(C(=O)NC4CCCCC4)cc3)nc3cccnc32)c1` it was inactive: -32.8%; in that of `COc1ccccc1NC(=O)CCNS(=O)(=O)c1ccc2c(c1)CCCC(=O)N2`, inactive: -11.4%; in that of `CCn1c(=O)cc(SCC(=O)N2CCN(c3cc(C)ccc3C)CC2)c2ccccc21`, inactive: -22%.
Consider `Cc1nc2cccnc2n1-c1cccc(C(=O)NCCc2ccc(Cl)cc2)c1`, for which the “activity change, positive = activation” value is inactive: -29%.
For `N#Cc1ccccc1NC(=O)C(=O)NCC(c1ccc2c(c1)OCO2)N1CCN(c2ccccc2)CC1` (stereo not drawn), the “activity change, positive = activation” value is inactive: -5.15%.
In the case of `COc1cc(CN2CCc3nc(N4CCN(c5ccccc5F)CC4)ncc3C2)ccc1OC(C)C` it was inactive: -36.7%; in that of `CCC(=O)N1CCCc2cc(S(=O)(=O)Nc3ccc(C)c(C)c3)ccc21`, inactive: -31%.
Turning to `CCCCN(CC)C(=O)Cn1c(=O)n(-c2ccc(OCC)cc2)c(=O)c2c3c(sc21)CCCC3`, the “activity change, positive = activation” value was inactive: -30.9%.
Take `O=C(Nc1ccc2nc(SCC(=O)N3CCCc4ccccc43)sc2c1)c1ccc(F)cc1`: the “activity change, positive = activation” value is inactive: -30.8%.
In the case of `Cc1c(C(=O)Nc2ccc(Br)cc2F)sc2ncnc(N(C)C3CCCCC3)c12` it was inactive: -10.3%; in that of `CCOC(=O)c1c(C)[nH]c(C)c1S(=O)(=O)NCC(=O)N(C)c1ccc(C)c(C)c1`, inactive: -2.1%.
In the case of `Cn1cnc(S(=O)(=O)N2CCC(C(=O)N3CCN(c4cccc(C(F)(F)F)c4)CC3)CC2)c1` it was inactive: -5.72%; in that of `O=C(Nc1c(C(=O)c2ccccc2)oc2ccccc12)c1cc(=O)c2ccccc2o1`, inactive: 3.63%; in that of `COc1ccc(NC(=O)CSc2nc(-c3ccccc3)nc3cc(=O)[nH]n23)cc1`, inactive: 3.42%.
In the case of `CC(C)(C)c1ccc(NC(=O)CSc2nnc3scc(-c4ccccc4)n23)cc1` it was inactive: -25.6%; in that of `CSc1ncc(C(=O)Nc2ccccc2C(=O)c2ccccc2)c(C)n1`, inactive: -13.9%.
Turning to `CCOC(=O)c1cnc2c(OC)cccc2c1Nc1cccc(O)c1`, the “activity change, positive = activation” value is inactive: -34%.
`CCn1c2ccc(F)cc2c2nnc(SCCN3CCCCC3)nc21`: the “activity change, positive = activation” value was inactive: -17.8%.
Consider `Nc1nc(N)c2nc(-c3cccc(O)c3)c(-c3cccc(O)c3)nc2n1`, for which the “activity change, positive = activation” value was inactive: -1.92%.
Turning to `Cc1cccc(CNC(=O)C2CCN(c3nc4ccc(Cl)cc4[nH]3)CC2)c1`, the “activity change, positive = activation” value was inactive: -15.1%.
As for `Cc1cc(C)c2c(C)c(C(=O)N3CCC(c4nc5ccccc5s4)CC3)oc2c1`, the activity change, positive = activation was inactive: -23% [at 11.5 µM, percent change from vehicle, -100% = no light].
As to `COc1ccc(C2Nc3ccccc3-c3nnc(SC)nc3O2)cc1C` (stereo not drawn), the “activity change, positive = activation” value is inactive: -4.91%.
In the case of `COc1cc(C2c3c(oc4ccc(C)cc4c3=O)C(=O)N2Cc2ccc(F)cc2)ccc1O` (stereo not drawn) it was inactive: -17.9%.
As for `Cc1ccc(C(=O)Nc2ccccc2F)cc1S(=O)(=O)N1CCOCC1`, the “activity change, positive = activation” value is inactive: 6.66%.
For `CC1(C)O[C@@H]2C[C@H]3[C@@H]4C[C@H](F)C5=CC(=O)C=C[C@]5(C)[C@H]4[C@@H](O)C[C@]3(C)[C@]2(C(=O)CO)O1`, the “activity change, positive = activation” value is inactive: -21.2%.
For the compound `Cc1ccc(NC(=O)CCC(=O)N2CCOc3ccccc32)c(Cl)c1`, the “activity change, positive = activation” value is inactive: 8.41%.
Consider `CCc1nn2c(=O)cc(COC(=O)CNC(=O)c3ccccc3)nc2s1`, for which the “activity change, positive = activation” value was inactive: -11.8%.
In the case of `O=C(Nc1ccc(Br)cc1)C1CCN(c2cnccn2)CC1` it was inactive: -27.5%; in that of `COc1cc(OC)c(Nc2cc(C)nc3ncnn23)cc1Cl`, inactive: -21.3%.
In the case of `CCOc1ccc(C(=O)Nc2cccc(NC(=O)c3ccco3)c2)cc1Cl` it was inactive: 0.726%; in that of `COc1ccccc1CNC(=O)c1ccc(N2CCCC2)c(NC(=O)NCc2ccccc2)c1`, inactive: -14%.
`CCN(CC)S(=O)(=O)c1nnc(NC(=O)COc2ccccc2Cl)s1`: the “activity change, positive = activation” value was inactive: -14.5%.
As to `O=C(COc1ccccc1F)OCc1cc(=O)n2nc(-c3cccs3)sc2n1`, the “activity change, positive = activation” value was inactive: 0.926%.
With `CCC(C(=O)N1CCN(c2ccccc2)CC1)n1nc(C)n2c(cc3sccc32)c1=O` (stereo not drawn), the “activity change, positive = activation” value is inactive: -23.7%.
For the compound `COc1ccc(C(=O)NCc2nnc(SCC(=O)Nc3ccccc3)n2-c2ccc(F)cc2)cc1`, the “activity change, positive = activation” value was inactive: -13.1%.
Consider `CC(C)NCC(O)COc1cccc2[nH]ccc12` (stereo not drawn), for which the “activity change, positive = activation” value was inactive: -15.5%.
In the case of `CCOc1ccc(CCNC(=O)CN2C(=O)C(CC)Oc3ccccc32)cc1OCC` (stereo not drawn) it was inactive: -19%; in that of `COc1ccc(NC(=O)c2c(NCc3ccc(C)o3)sc3c2CCC(C)C3)c(OC)c1` (stereo not drawn), inactive: -23.3%; in that of `COc1ccc(OC)c(NC(=O)CSc2ccnc(=O)[nH]2)c1`, inactive: -16%.
In the case of `COc1ccccc1-c1cc(C(=O)Nc2sc3c(c2C#N)CCCC3)no1` it was inactive: -8.76%; in that of `Cn1c(=O)oc2cc(S(=O)(=O)CCC(=O)N3CCN(c4ccccc4)CC3)ccc21`, inactive: 6.51% [at 11.5 µM, percent change from vehicle, -100% = no light]; in that of `COc1ccccc1N1CCN(S(=O)(=O)c2c(C)sc3ncn(CC(=O)Nc4cccc(Cl)c4)c(=O)c23)CC1`, inactive: 5.46%.
In the case of `COC(=O)c1c(-c2ccc(Cl)cc2)noc1N1CCN(c2ccc(OC)cc2)CC1` it was inactive: -4.7%; in that of `COc1ccc(C2CC(c3c(O)n(C4CCCCC4)c(=O)[nH]c3=O)=Nc3ccccc3S2)cc1` (stereo not drawn), inactive: 12.1%.
Regarding `Cc1ccc2c(c1)NC(=O)C(CC(=O)Nc1cc(Cl)ccc1C)O2` (stereo not drawn), the “activity change, positive = activation” value was inactive: -4.96%.
In the case of `COc1ccc(-c2cnnn2-c2ccc(NC(=O)c3ccc(S(=O)(=O)N(C)C)cc3)cc2)cc1` it was inactive: -31.4%; in that of `COc1ccc(-c2cnnn2-c2ccc(NC(=O)c3c(F)cccc3F)cc2)cc1`, inactive: -28.9%; in that of `CCOC(=O)c1cnc2cc(-c3ccc(Cl)cc3)nn2c1-c1ccccc1`, inactive: 0%.
